Laboratory results published in the supplement of paper PMC3334620.
Over roughly 33,000 sequences, “E-score (-0.5 to 0.5)” has its median near -0.012; the highest 2% begin near 0.29. The list shows a part of the results.

Each sequence was assayed against T1, Ybr033w (UniProt P38073) (assay: PBM E-score (8-mer binding enrichment) (E-score (-0.5 to 0.5)); higher = stronger / more preferred TF binding; most listed sequences are background and not binding sites). Details: protein concentration: 200 nM; construct: GST-full length.
T1 sequence: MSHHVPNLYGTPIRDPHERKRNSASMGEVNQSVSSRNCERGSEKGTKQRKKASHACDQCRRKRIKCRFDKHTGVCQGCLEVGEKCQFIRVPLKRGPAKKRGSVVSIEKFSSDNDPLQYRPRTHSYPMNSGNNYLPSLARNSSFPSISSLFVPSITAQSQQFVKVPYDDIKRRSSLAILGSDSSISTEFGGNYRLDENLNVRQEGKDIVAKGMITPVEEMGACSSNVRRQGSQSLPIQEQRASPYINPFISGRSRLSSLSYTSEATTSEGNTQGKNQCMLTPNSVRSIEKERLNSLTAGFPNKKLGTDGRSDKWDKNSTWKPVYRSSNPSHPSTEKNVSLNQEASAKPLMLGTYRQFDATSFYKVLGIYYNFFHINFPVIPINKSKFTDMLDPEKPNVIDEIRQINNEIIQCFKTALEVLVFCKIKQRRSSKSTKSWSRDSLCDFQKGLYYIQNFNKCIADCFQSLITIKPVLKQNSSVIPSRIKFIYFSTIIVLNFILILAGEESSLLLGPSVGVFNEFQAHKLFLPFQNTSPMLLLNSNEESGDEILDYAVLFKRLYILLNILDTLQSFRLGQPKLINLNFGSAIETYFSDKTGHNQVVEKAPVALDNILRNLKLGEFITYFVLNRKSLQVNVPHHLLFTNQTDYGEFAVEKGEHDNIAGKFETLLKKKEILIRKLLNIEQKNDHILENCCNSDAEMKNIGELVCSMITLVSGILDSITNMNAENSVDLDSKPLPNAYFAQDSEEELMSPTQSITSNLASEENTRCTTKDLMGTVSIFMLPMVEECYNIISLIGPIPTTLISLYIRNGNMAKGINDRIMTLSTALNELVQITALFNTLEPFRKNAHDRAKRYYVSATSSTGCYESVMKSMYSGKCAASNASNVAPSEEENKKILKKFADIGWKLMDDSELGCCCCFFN
Method in brief: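 Yeast transcription factors carrying a GST tag, as full-length proteins or DNA-binding domains, were produced by PURExpress in vitro transcription/translation. About 100-200 nM protein was applied to universal all-10-mer Agilent arrays, double-stranded by primer extension on fresh or once-stripped slides. Bound protein was detected with fluorescent anti-GST, and scans were normalised with masliner. The Universal PBM Analysis Suite gave each ungapped eight-base word, pooled with its reverse complement, an E-score, a modified Wilcoxon-Mann-Whitney statistic.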

In order of falling “PBM E-score” value:
1. AGGAAAAA  0.431
2. AATTTATC  0.398
3. ATATTAAA  0.355
4. CTGGAATA  0.355
5. ATTAATAC  0.306
6. AGTTCTTC  0.3
7. TCAAGAAA  0.291
8. TATTAGAA  0.259
9. AATCTTTG  0.25
10. ATTCGATA  0.243
11. AGAAAATC  0.232
12. TGTTAAAA  0.226
13. GATATATC  0.226
14. ACATACAT  0.226
15. CAAAACAG  0.22
16. ATATCGAA  0.219
17. AAAACTAT  0.217
18. AAAGCGAT  0.212
19. GCCGGAAC  0.205
20. ATAGTTCA  0.202
21. AATCCCGA  0.193
22. AATACCTA  0.189
23. CTAGATAC  0.186
24. CGTGGAAA  0.182
25. AGGTAAAA  0.179
26. TTGTACAA  0.178
27. AAAAAGGA  0.171
28. ATCAAGTC  0.161
29. CTCGTAAG  0.156
30. GAGAAAAA  0.155
31. AACTATCG  0.15
32. ATCTTTTG  0.15
33. CAGAAATC  0.144
34. CAAGACAA  0.143
35. AGAAGCAT  0.141
36. CCTTACTC  0.138
37. ACATTTCA  0.132
38. AAGAAAAC  0.125
39. ACAGCAAA  0.125
40. TGACGGAA  0.119
41. ACAACGAC  0.118
42. ATTCTTGC  0.118
43. CGAAGTAG  0.112
44. GCAAATTA  0.106
45. ATAATGCA  0.106
46. AGTTGCAT  0.103
47. ACGGCGCG  0.0984
48. GCGAGATA  0.0981
49. ACCCTAAA  0.0972
50. CGATCAAG  0.0963
51. CACCGCAG  0.0948
52. AGTAAAGA  0.0944
53. AAGGTTCT  0.091
54. AATATGGG  0.0909
55. GCCGCAAA  0.0878
56. CGAGTGCA  0.0861
57. CTCAGGTA  0.0811
58. ACGATTTC  0.0795
59. CATAGCAA  0.0792
60. CGATTTTA  0.0786
61. CGCGAATA  0.0756
62. ATGGTTTG  0.0708
63. AACTACGC  0.07
64. AATCGGAG  0.0694
65. CCCATGGG  0.0663
66. ATGTACTG  0.0642
67. AGGCACTG  0.0625
68. GTAGCAAC  0.0603
69. ACTAGCTA  0.0556
70. AGTTACTA  0.0545
71. ATTGCGAC  0.0532
72. GTCCACAC  0.0487
73. ACTGAGTA  0.047
74. CGTTTAGA  0.0439
75. TCGGACCA  0.0418
76. AACGCGCT  0.0416
77. CGCTTCAA  0.0406
78. ATGCTACC  0.0362
79. AGGCGGAT  0.036
80. ACGTTAGC  0.0319
81. GCGACAGA  0.0317
82. TCCGGTAA  0.0264
83. ATAGCAGA  0.0243
84. AACTGTTG  0.0201
85. CTTACACA  0.00885
86. GCGGTGGA  0.00804
87. GAACACCC  0.00549
88. CTACAAAA  0.00298
89. CACGTTGG  -0.00164
90. GAAGTCGA  -0.0021
91. GACTAGGA  -0.00351
92. CAGTAAAC  -0.00574
93. GCGCTTTA  -0.00582
94. AGATCGAT  -0.00686
95. CGAACGAC  -0.0176
96. TAAGGTGA  -0.0199
97. TGCTCCCA  -0.0244
98. CTGGTACA  -0.0259
99. AGCTTATC  -0.0268
100. CAAGACGC  -0.0286
101. AGAGCATA  -0.0305
102. ACTCCATA  -0.0391
103. ACGGCTCC  -0.0407
104. CTATGACC  -0.0416
105. CTTTACGA  -0.042
106. GCTCTCAA  -0.044
107. AAGTCCTG  -0.0492
108. CGTAATGC  -0.052
109. GATCCGCA  -0.0555
110. GCAGCTGA  -0.0558
111. CTGGCCTA  -0.0592
112. AGTCTCTG  -0.0621
113. ACTACACG  -0.0624
114. AAGACCAG  -0.0673
115. GTATACTA  -0.0742
116. CGTCGACC  -0.0768
117. CCTTTCGA  -0.0776
118. GAGCAACA  -0.0784
119. CACCAAGG  -0.0794
120. CCTAGGCA  -0.0795
121. AAGCCGCA  -0.0894
122. ACCCACAG  -0.0895
123. GGGTGCCA  -0.0919
124. AACAGGCA  -0.0929
125. AGGGCTAA  -0.0933
126. CCTGGTTC  -0.0996
127. CCGTGAAC  -0.103
128. CCTGACAA  -0.11
129. CCACTGGC  -0.111
130. GGTGAGCA  -0.113
131. CGCAGCAC  -0.115
132. TACGGCAA  -0.118
133. ATACGGAC  -0.119
134. ACACACCG  -0.12
135. CTATGTCC  -0.12
136. CGCTACAG  -0.122
137. CGAAGACA  -0.123
138. GTCACCCA  -0.125
139. ACGCAGGC  -0.13
140. CACGGCTA  -0.132
141. ACGAGAGC  -0.134
142. GATTCCCC  -0.143
143. AGCCACCG  -0.143
144. GCAGGTAC  -0.145
145. ACGATCTC  -0.153
146. GCATGTAC  -0.156
147. CACTTCTC  -0.16
148. ATAGCCGC  -0.16
149. ACCTGGAC  -0.165
150. AGGCTGTC  -0.166
151. CTTGCTCA  -0.167
152. CTAGGTCC  -0.175
153. GCTCGGAC  -0.182
154. CCAGGGTC  -0.186
155. ACCATGGG  -0.191
156. AGAGCCCT  -0.199
157. CCTGAAGC  -0.199
158. CAGACGTC  -0.203
159. CTCCCGAG  -0.207
160. CCCGCATC  -0.218
161. AGCCAAGC  -0.221
162. GGGAACCA  -0.224
163. ACACCCGG  -0.229
164. CGGTACCA  -0.233
165. CCTGCAAG  -0.236
166. GAGCGCCA  -0.238
167. GAAAGGCC  -0.253
168. GGGGACTA  -0.254
169. CAGCGGGA  -0.263
170. CGTCTGCC  -0.275
171. CGGCTGAG  -0.284
172. GAGGCCTC  -0.37
